In a collection of fitness landscapes (doi:10.1126/science.1257360):
The other results are listed elsewhere or left out.

B1: PhoQ; a variant is named by its letters at X, in order, P23837 (parent)
chain: MKKLLRLFFPLSLRVRFLLATAAVVLVLSLAYGMVALIGYSVSFDKTTFRLLRGESNLFYTLAKWENNKLHVELPENIDKQSPTMTLIYDENGQLLWAQRDVPWLMKMIQPDWLKSNGFHEIEADVNDTSLLLSGDHSIQQQLQEVREDDDDAEMTHSVAVNVYPATSRMPKLTIVVVDTIPVELKSSYMVWSWFIYVLSANLLLVIPLLWVAAWWSLRPIEALAKEVRELEEHNRELLNPATTRELTSLVRNLNRLLKSERERYDKYRTTLTDLTHSLKTPLXXLQXXLRSLRSEKMSVSDAEPVMLEQISRISQQIGYYLHRASMRGGTLLSRELHPVAPLLDNLTSALNKVYQRKGVNISLDISPEISFVGEQNDFVEVMGNVLDNACKYCLEFVEISARQTDEHLYIVVEDDGPGIPLSKREVIFDRGQRVDTLRPGQGVGLAVAREITEQYEGKIVAGESMLGGARMEVIFGRQHSAPKDE

Variants of: B1
Test: enrichment ratio after two sorts for PhoP signalling (ratio (wild type AVST 3.29)); higher = more functional
Conditions: with PhoP (E. coli)

Variant	enrichment ratio
IPRE	≤ 0.25
YFCN	≤ 0.25
GNYR	≤ 0.25
VKSR	≤ 0.25
KYQK	≤ 0.25
VRMC	≤ 0.25
HWDL	≤ 0.25
RGDW	≤ 0.25
PWYH	≤ 0.25
INVE	≤ 0.25
SKWQ	≤ 0.25
ITED	≤ 0.25
IPKH	≤ 0.25
KFWN	≤ 0.25
VGDK	≤ 0.25
DIFH	≤ 0.25
LAGS	≤ 0.25
CYLA	≤ 0.25
HCTD	≤ 0.25
VLKN	≤ 0.25
WFWL	≤ 0.25
ERMT	≤ 0.25
EFTK	≤ 0.25
LECY	≤ 0.25
IKMP	≤ 0.25
MSHT	≤ 0.25

Variant	enrichment ratio
IIMY	≤ 0.25
VRND	≤ 0.25
KAHY	≤ 0.25
RDAA	≤ 0.25
KSEM	≤ 0.25
EFNH	≤ 0.25
GRST	≤ 0.25
DNDV	≤ 0.25
TPNH	≤ 0.25
RRHP	≤ 0.25
IATQ	≤ 0.25
MNVN	≤ 0.25
LWAT	≤ 0.25
HPQK	≤ 0.25
QVGA	≤ 0.25
STGH	17.1
WKCN	≤ 0.25
KKQR	≤ 0.25
HKHW	≤ 0.25
YRKD	≤ 0.25
EQPT	≤ 0.25
DNLM	≤ 0.25
TSNV	9.24
KQGW	≤ 0.25
RWSL	≤ 0.25
NNGR	≤ 0.25

Variant	enrichment ratio
NYPR	≤ 0.25
CWMS	≤ 0.25
LCHL	2.38
DNGG	≤ 0.25
AGGP	≤ 0.25
AQNG	28.2
GSKR	≤ 0.25
FDIY	≤ 0.25
LRWV	≤ 0.25
KDMH	≤ 0.25
MKPF	≤ 0.25
GWIV	≤ 0.25
YFIA	≤ 0.25
QQKH	≤ 0.25
YYQM	≤ 0.25
GWGM	≤ 0.25
FVEI	≤ 0.25
QIPY	≤ 0.25
YYMC	≤ 0.25
HRCT	≤ 0.25
DMAT	≤ 0.25
SENF	≤ 0.25
EYQN	≤ 0.25
MPPY	≤ 0.25
DGPQ	≤ 0.25
YWGS	≤ 0.25

Variant	enrichment ratio
ERDP	≤ 0.25
YFPY	≤ 0.25
VEEF	≤ 0.25
DAFE	≤ 0.25
FKWW	≤ 0.25
RRDF	≤ 0.25
LPIC	≤ 0.25
PAFE	≤ 0.25
RTYP	≤ 0.25
LHPH	≤ 0.25
VGKF	≤ 0.25
QDNQ	≤ 0.25
NGFC	≤ 0.25
WGYQ	≤ 0.25
KTAE	≤ 0.25
FSSE	≤ 0.25
MNPP	≤ 0.25
FENS	≤ 0.25
AETF	9.37
PNWF	≤ 0.25
FPNQ	≤ 0.25
PLSR	≤ 0.25
NFIF	≤ 0.25
EFCK	≤ 0.25
NRQV	≤ 0.25
PYFS	≤ 0.25

Variant	enrichment ratio
VSKC	≤ 0.25
FRQF	≤ 0.25
YVER	≤ 0.25
TACN	13
EMTF	≤ 0.25
NNRA	≤ 0.25
KACT	≤ 0.25
SCIG	3.69
DLVQ	≤ 0.25
MDLN	≤ 0.25
DSDP	≤ 0.25
YNIF	≤ 0.25
MTGQ	6.54
GLAP	≤ 0.25
WAKW	≤ 0.25
MNGK	≤ 0.25
SWTK	≤ 0.25
VTLL	17.8
YCIY	≤ 0.25
NTPW	≤ 0.25
GVAF	10.8
MYWA	≤ 0.25
YHPQ	≤ 0.25
DFSD	≤ 0.25
HVHD	≤ 0.25
DLRV	≤ 0.25

Variant	enrichment ratio
NKID	≤ 0.25
YNII	≤ 0.25
AAYQ	≤ 0.25
KYFE	≤ 0.25
AKEH	≤ 0.25
EKKF	≤ 0.25
TNCM	0.338
LPAC	≤ 0.25
TIDA	≤ 0.25
KFMQ	≤ 0.25
FRQI	≤ 0.25
FLAV	≤ 0.25
DTST	≤ 0.25
VCGL	0.55
ENCC	≤ 0.25
DHPR	≤ 0.25
FNGL	≤ 0.25
KRVW	≤ 0.25
PAES	≤ 0.25
HWIW	≤ 0.25
VFLK	≤ 0.25
GFYD	≤ 0.25
FGQM	≤ 0.25
